# From the supplement of paper PMC3334620
# In all, about 33,000 sequences were measured (“E-score (-0.5 to 0.5)”: median about -0.035, highest 2% from about 0.35 on). The list shows a part of the results.
# Target: T1, Pdr3 (UniProt P33200)
# T1 sequence: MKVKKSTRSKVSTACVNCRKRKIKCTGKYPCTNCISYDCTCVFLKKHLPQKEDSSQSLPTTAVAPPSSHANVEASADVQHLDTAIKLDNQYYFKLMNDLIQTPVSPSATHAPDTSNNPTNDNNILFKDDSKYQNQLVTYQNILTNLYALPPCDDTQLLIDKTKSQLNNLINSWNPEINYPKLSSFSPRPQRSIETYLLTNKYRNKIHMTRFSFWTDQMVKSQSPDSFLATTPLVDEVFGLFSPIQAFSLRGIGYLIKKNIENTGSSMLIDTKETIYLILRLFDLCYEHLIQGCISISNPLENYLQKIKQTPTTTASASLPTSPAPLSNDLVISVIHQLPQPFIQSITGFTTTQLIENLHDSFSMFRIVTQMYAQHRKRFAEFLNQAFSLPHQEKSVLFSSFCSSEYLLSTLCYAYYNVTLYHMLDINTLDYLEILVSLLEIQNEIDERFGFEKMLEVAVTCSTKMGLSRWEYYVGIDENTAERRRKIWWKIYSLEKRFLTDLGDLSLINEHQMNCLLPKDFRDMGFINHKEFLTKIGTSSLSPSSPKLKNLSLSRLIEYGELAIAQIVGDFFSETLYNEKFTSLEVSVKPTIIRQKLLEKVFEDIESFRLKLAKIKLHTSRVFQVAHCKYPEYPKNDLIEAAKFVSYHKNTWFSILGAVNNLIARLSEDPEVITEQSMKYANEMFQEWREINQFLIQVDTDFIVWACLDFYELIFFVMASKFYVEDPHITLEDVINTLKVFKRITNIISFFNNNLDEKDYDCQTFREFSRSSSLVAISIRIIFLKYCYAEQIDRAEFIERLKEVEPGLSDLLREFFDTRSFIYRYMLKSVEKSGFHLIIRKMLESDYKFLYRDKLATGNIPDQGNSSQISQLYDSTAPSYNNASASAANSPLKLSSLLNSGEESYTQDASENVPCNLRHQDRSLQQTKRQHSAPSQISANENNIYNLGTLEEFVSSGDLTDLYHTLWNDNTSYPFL
# Test: PBM E-score (8-mer binding enrichment) (E-score (-0.5 to 0.5)); higher = stronger / more preferred TF binding; most listed sequences are background and not binding sites
# Details: protein concentration: 200 nM; construct: GST-full length
# Summary of the method: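 Yeast transcription factors, full-length or as DNA-binding domains, were expressed with a GST tag using PURExpress in vitro transcription/translation. At about 100-200 nM they were applied to universal all-10-mer Agilent arrays, double-stranded by primer extension on fresh or once-stripped slides. Fluorescent anti-GST detected bound protein, and masliner normalised the scans. E-scores for ungapped eight-base words, pooled with reverse complements, came from the Universal PBM Analysis Suite.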
row,Sequence,PBM E-score
1,ATCCATAC,-0.112
2,GGGAGTAC,-0.0731
3,GGGTAGAA,-0.123
4,ATGAAATA,0.108
5,TGAACTCA,-0.177
6,GCCCTGAA,-0.0391
7,AATCGCTA,-0.0448
8,CCTAAAGC,-0.28
9,AAACTCCC,0.138
10,AAGATTAG,-0.0582
11,GCAGGCCC,-0.146
12,CTTCAACC,0.00827
13,ATATGGAC,-0.144
14,CCCATTCC,0.234
15,AAGACTTC,-0.253
16,CCGATACG,0.0982
17,ACTCCTGG,-0.134
18,CCGTCAGG,0.132
19,GTAATGGA,0.026
20,GACCATGC,-0.0171
21,CAACGTCA,-0.1
22,TCCAAAAA,-0.132
23,GAGACCGA,0.0506
24,AGCCTGCC,-0.0831
25,GGCGCCGA,0.314

row,Sequence,PBM E-score
1,AACGAACA,0.168
2,ATACAAAC,0.102
3,GTACTTAA,-0.229
4,CACAGGTC,-0.118
5,ATAGGCCG,0.0836
6,CACGTTCG,-0.0145
7,CTAGGAGA,-0.191
8,AACCGCGT,0.141
9,TGACTCCA,-0.204
10,TTAATAAA,0.0974
11,GAATTGGA,-0.041
12,CGTTGCCC,0.101
13,CCCCTAAG,-0.135
14,CACGTAGC,-0.256
15,CATGAACC,0.179
16,ATAGTGGG,0.00433
17,ACCACGCG,-0.0399
18,GTCAACCA,-0.227
19,ATGACGAC,0.00058
20,ACTAAACA,-0.168
21,CGTCATTA,0.00076
22,AACCAACA,-0.00136
23,CGTTTATC,0.0534
24,ATCATCCC,0.0931
25,CGCGTGGA,-0.0579

row,Sequence,PBM E-score
1,CGTGGCAG,-0.0151
2,GTTAGGGA,-0.12
3,ACTCACGG,0.262
4,ACCGTGGA,0.174
5,CAGTAAGA,-0.0579
6,CCGACGAA,0.193
7,GCCTAGGC,-0.0544
8,ACGTCTAG,-0.158
9,CCTGGCTC,-0.0432
10,AGTGACCG,0.00937
11,AGGTGAGC,-0.18
12,ACCCCCTG,-0.236
13,GCCTGACC,-0.0865
14,AGTGGTGC,-0.0226
15,ACCAATGC,0.0796
16,CCATCCGG,0.282
17,CGATATAA,-0.00948
18,CCGGAAAA,0.44
19,AGAATTGG,-0.0572
20,AATTTGGA,-0.231
21,CAAAGTAA,0.107
22,ACCCTTCG,-0.0521
23,ACTTCAAA,-0.186
24,ACTTTCGG,0.14
25,AACGATTC,0.0286

row,Sequence,PBM E-score
1,CAAGTCGG,0.0937
2,GTAGGCAC,-0.0416
3,CTACACAG,-0.305
4,ACTTCCAA,-0.127
5,ATGCACAT,-0.0689
6,ATTTGTCA,-0.2
7,ATGTAAGA,-0.0241
8,ACACGACG,-0.0259
9,AATCAAGT,-0.137
10,ACTAGAAT,-0.186
11,AACTATGT,-0.0803
12,CCGGGGAG,0.332
13,ACCAGGGA,-0.191
14,AGCATTTG,-0.0766
15,AAAGAAGG,-0.119
16,GCGAAAGC,-0.0113
17,AGTACAGG,-0.0909
18,ATAATGTC,0.209
19,CCGTAACA,-0.0633
20,CGGCTGGC,0.171
21,CACTCATA,-0.11
22,CGATGCCA,-0.147
23,AATTGTTG,-0.258
24,GATAAAGA,-0.18
25,ACAGATTG,0.0375

row,Sequence,PBM E-score
1,AAGGGCTC,-0.247
2,GTGACTCA,-0.17
3,ACCACCTG,0.0602
4,GCAGTCAC,-0.131
5,CAAACCGC,0.108
6,ACGCGCAA,0.168
7,TATTGAGA,-0.188
8,CCTTTAAG,-0.287
9,ACCGGCGG,0.256
10,ACAGAGAA,-0.0645
11,CGGCCGAC,0.315
12,CTAGGTGC,-0.121
13,ACTGGCGG,0.153
14,GTAAGTCA,-0.193
15,CGACCGGA,0.358
16,GTGGAAGA,-0.0507
17,ACTTCCCA,-0.0401
18,GCATCAAC,0.115
19,AAAATTTA,-0.0266
20,CCTGTAAG,-0.309
21,CGAAAAAG,0.159
22,ACGCCCGA,0.153
23,ACCAAAAG,-0.176
24,AATGCAGC,-0.144
25,GGGGCATA,0.0389

row,Sequence,PBM E-score
1,CCGGATAG,0.347
2,CCAGTAAA,-0.0539
3,AGTATTCA,-0.0479
4,TCATCCCA,-0.179
5,GACTCTAA,0.0119
6,ACCGAGTG,-0.0934
7,TCATAAGA,-0.0952
8,TACATCCA,-0.145
9,CGCGGTAC,0.367
10,AGGCTGCG,-0.0951
11,CCTGGGCC,-0.0401
12,TAATTTCA,0.109
13,ATGTTCTC,-0.205
14,CTACTTTC,-0.103
15,AGCCGGGA,0.3
16,ATGTCAGC,-0.0544
17,ACGGTTCT,-0.134
18,CGCGGCGA,0.374
19,AACGGACG,0.241
20,AGAGTGAT,-0.125
21,CTTTAACA,-0.129
22,GTTAATTA,0.0853
23,ATTCAAAA,0.0638
24,TGATGCCA,-0.158
25,CGGTTGTA,-0.15

row,Sequence,PBM E-score
1,CGGCGAAC,0.208
2,CCGCATTA,0.233
3,ATACCCTC,0.0772
4,AGTTATGA,-0.136
5,ATCGAGTA,-0.1
6,CTTTGTGC,-0.0216
7,TCCACTCA,-0.0727
8,GTGTGCGA,-0.0397
9,CGGTCGAC,0.26
10,GTTGAGGA,-0.109
11,AAAATAAA,0.0451
12,AAATATCA,0.0813
13,CCCGATAC,0.14
14,GTGCCAAA,-0.0342
15,AAGTTACC,0.0215
16,CTACGAAC,-0.167
17,CCGGCCCA,-0.0155
18,ATACAGAT,-0.00935
19,ACTAGTCA,-0.271
20,CTCGCATA,-0.179
21,AAGGGTTG,-0.182
22,CCAATAGG,-0.154
